Measurements taken from the RNAGym collection of RNA variant scans (doi:10.7554/elife.90254).
Read counts are not given, so values of variants with three or more changes are uncertain.

B1: LINE1-full (parent)
chain: UACGUAGGUGGUUUUCCCCUGAUAGUGCUAAGGGGGCCUGGAAGUUUGGACUGGGCAGAGCUCAACACAGCGUGGCAAAGUGGCUGUGGCUAGACUGCCUCUCUGGAUUCCUCGUCACUCAGCAGGGCAUCUCUGAGAGAAAUGCC

Variants of: B1
Assay: self-cleavage, relative activity (ratio to wild type); higher = more cleavage; in vitro, sequencing; the parent is a self-cleaving ribozyme
Variant G35U U87A U130C U132C A140G has a self-cleavage of 0.07. U39C A50U C101U U104C A140G showed a self-cleavage of 0.82. With G36A U39C U119C A129G the self-cleavage was 1.57. G36A G58U U100G showed a self-cleavage of 0.05. In the case of G36A A42G A69G, the self-cleavage is reported as 0.65. Variant U39A C131A U132C has a self-cleavage of 1.17. C37A C71A A121U showed a self-cleavage of 0.21. In the case of C38A A129G A140G, the self-cleavage is reported as 1.18. U39A A117G G122C A138G gave a self-cleavage of 1.77. Variant U39A U45A U115C has a self-cleavage of 1.77. G36A A92C C111U gave a self-cleavage of 0.06. In the case of G35A U62C C68A, the self-cleavage is reported as 0.03. In the case of U39A U52C A57U U115A A141G, the self-cleavage is reported as 0.4. Variant G34A U47A A57G has a self-cleavage of 0.61. Work on G33U U47C A65G U85C U104C yielded a self-cleavage of 0. Work on G36A U62C A121G A141G yielded a self-cleavage of 0.06. Variant U39A A57C C145U has a self-cleavage of 0.13. For G34U A77U U87C A138G, the self-cleavage was 0.06. For U39C A50G U73A U134C, the self-cleavage was 0.9. Work on C37A A43G A142G yielded a self-cleavage of 1.2. Variant U39A A67G G72A has a self-cleavage of 0.4. C38U G74A A78U gave a self-cleavage of 1.79. G35U A42U C90U showed a self-cleavage of 0. Variant G34A G49U U62C has a self-cleavage of 0.04. With U39A U62C A78G U109C the self-cleavage was 0.08. Work on G35A A65G G82A yielded a self-cleavage of 0.01. For G34A U87C U91A C103A, the self-cleavage was 0.07. Variant C37U U39C G93U has a self-cleavage of 0.02. In the case of U39C A64G U119G G127A, the self-cleavage is reported as 0. In the case of U39A U52C A94G U96G, the self-cleavage is reported as 0. Work on G34U A59U A67C A78G U134A A140G yielded a self-cleavage of 0.03. In the case of U39A G60A U102A, the self-cleavage is reported as 0.06. With G36A A78G U85C the self-cleavage was 0.09. For U39A A43G A67U U73C, the self-cleavage was 0. U39C A59G C99U A140G gave a self-cleavage of 0.04. Variant U39A A78G G135A has a self-cleavage of 1.87. For U39A A78G A92G U100C, the self-cleavage was 1.23. Variant C37G G93U U96C has a self-cleavage of 0.04. With U39A U46C G53U the self-cleavage was 1.6. In the case of G36U U47A C63U, the self-cleavage is reported as 0.16. In the case of U39A A42G A57G U96C U109A A129U, the self-cleavage is reported as 0.66. Work on G33U U81A A94G U109C yielded a self-cleavage of 0.25. For U39A U81A U91C, the self-cleavage was 0.38. Variant G35A U47A A77G C116U U132C has a self-cleavage of 1.71. With C38U U39G U62C A129G the self-cleavage was 0. G35C U39A U91A C131G A140G showed a self-cleavage of 0.57. Variant C37G U73A U100C U115C has a self-cleavage of 1.19. G34A C71A A94G A142G showed a self-cleavage of 0.05. C37G U62C U108A showed a self-cleavage of 0.02. In the case of G36C A42U A43G A107G, the self-cleavage is reported as 0.82. In the case of U39A A42G U119A A138G, the self-cleavage is reported as 1.4. Variant G34A A42U A64G A94G has a self-cleavage of 0. Variant C38U A64U A69C A94G has a self-cleavage of 0.14. In the case of U39A U47C U112C, the self-cleavage is reported as 2.47. Variant C37A A50U A124U has a self-cleavage of 0.63. G33U G75A U87C gave a self-cleavage of 0.05. Work on G36A U52A A57G A94U yielded a self-cleavage of 0.05. For G34U A64C U115C U134C, the self-cleavage was 0.34. U39A C98A U115C gave a self-cleavage of 0.11. U39C A57U U81A G122A showed a self-cleavage of 0.05. In the case of G36A A107G U134A, the self-cleavage is reported as 0.87. G35A A43U U62C A136G showed a self-cleavage of 0.01. C38A U46A A138U showed a self-cleavage of 1.1. In the case of C38A U73A G75U U104A, the self-cleavage is reported as 0.66. With C38A G54A U102C the self-cleavage was 0.22. Work on G34U A42G A121U yielded a self-cleavage of 1.64. Variant G35C U45C G75A U143C has a self-cleavage of 1.06. For G34A A67U A121G U132C, the self-cleavage was 0.57. For C38U U47A G54U A77G A94G U108C A121G A142G, the self-cleavage was 0.09. Work on C38U U46C U87C U108C U130C U143C yielded a self-cleavage of 0.63. Variant U39A U81G U85A A141G has a self-cleavage of 0.11. With G35A C56U U87G U96A U132G A140G the self-cleavage was 0.02. For U39A U62C U130C U143C, the self-cleavage was 0. G36U G53A U109C showed a self-cleavage of 1.21. For C37G A79G A124G, the self-cleavage was 1.17. With C38A A50G A69U U91C U134C the self-cleavage was 0.03. C38U G55U A141G showed a self-cleavage of 0.26. C37U A69U U73A U132G gave a self-cleavage of 0.03. In the case of G34U U134C U143G, the self-cleavage is reported as 1.61. U39A U52A U108C gave a self-cleavage of 1.77. U39C A57G U81G U87C A141C showed a self-cleavage of 0. For G35C U96A C146U, the self-cleavage was 0.04. Variant G36A A57G C84A has a self-cleavage of 0.01. With C38A U46C A136G the self-cleavage was 1.22.
